The chains are these.
B1: tRNA (parent)
chain: CUCUCGGUAGCCAAGUUGGUUUAAGGCGCAAGACUUUAAUUUAUCACUACGAAAUCUUGAGAUCGGGCGUUCGACUCGCCCCCGGGAGAUUUUUUCCUCGAGCAA

Experimental findings from the RNAGym collection of RNA variant scans (doi:10.1101/gad.245936.114) are described below.

Variants at the floor of the assay are shown more often than the library holds them.

The variants in this data set derive from B1. Kind of data set: nonsense suppression (GFP-seq) (ratio to wild type); higher = more function; SUP4oc tRNA, yeast GFP reporter sort-seq. The essentials:
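Nonsense suppression (GFPSEQ) is the median GFP/RFP ratio of each sorting bin, weighted by the variant's estimated share of cells in that bin and expressed relative to the unmutated parent tRNA. Yeast strains carried genome-integrated variants of an ochre-suppressor tRNA from a library with ~3% random mutations, plus a galactose-driven GFP ochre reporter and RFP, and were grown in raffinose/galactose medium containing 80 mg/L adenine. Cells were sorted into GFP/RFP bins, each bin was Illumina-sequenced (phred ≥30), and variants were kept only with ≥100 reads and ≥30 cells.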
CUCUCGGUAGCGAGGUUGGUUUAAGGCGCAAGGCUUUAAUUUAUCACUACGAAAUCUUGAGAUCGGGCGUUCGACUCGCCCCCGGGAGAUUUUUUCCUCGAGCAA [C12G A14G A33G]: the nonsense suppression was ≤ 0.026.
To CUCUCGGUAGGCAAGUUGGUUUAAGGCGCAAGUCUUUAAUUUAUCACUACGAAAUCUUGAGACCGGGCGUUCGACUCGCCCCCGGGAGAUUUUUUCCUCGAGCAA [C11G A33U U63C] belongs ≤ 0.026; to CUCUCGGUAGCAAAGUUGGUAUAAGGCGCAAGACUUUAAUUUAUCACUACGAAAUCUUGAGAUCGGGCGUUCGACUCGCCCCCGGGAGAUUUUUUCCUCGAGCAA [C12A U21A], ≤ 0.026; to CUCUCGGUAGCCAGGUUAGUUUAGGGCGCAAGACUUUAAUUUAUCACUACGAAAUCUUGAGAUCGGGCGUUCGACUCGCCCCCGGGAGAUUUUUUCCUCGAGCAA [A14G G18A A24G], ≤ 0.026.
As to CUCUCGGUAGCCAAGUUGGUUUAAGGCGCAAGACUUUAAUUUAUCACUACGAAAUCUUGAGAUCGGGCGUUCGACUCGCCCCCGGAAGUUUUUUUCCUCGAGCAA [G86A A89U], the nonsense suppression is ≤ 0.026.
CUCUCGGUAGCCCAGUUGGUUUAAGGCGCAAGACUUUAAUUUAUCACUACGAAAUCUUGAGAUCGGGCGUUCGAUUCGCCCCCGGGAGAUUUUUUCCUCGAGCAA [A13C C75U]: the nonsense suppression worked out at 1.09.
For the variant CUCUCGGUAGCCAAAUUGGUUUAAGGCGCAAGGUUUUAAUUUAUCACUACGAAAUCUUGAGCUCGGGCGUUCGACUCGCCCCCGGGAGAUUUUUUCCUCGAGCAA [G15A A33G C34U A62C], the nonsense suppression is ≤ 0.026.
To CUCUCUGUAGCCAAGUUGGUUUAAGGCGCAAGACUUUAAUUUAUCACUACGAAAUUUUCAGAUCUGGCGUUCGACUCGCCCCCGGGAGAUUUUUUCCUCGAGCAA [G6U C56U G59C G65U] belongs ≤ 0.026; to CUCUCGGGAACCAAGUUGGUUUAAGGCCCAAGACUUUAAUUUAUCACUACGAAAUCUUGAGAUCGGGCGUUCGACGCGCCCCCGGGAGAUUUUUUCCUCGAGCAA [U8G G10A G28C U76G], ≤ 0.026.
CUCUCGGUAGCCAAGUUGGUUUAAGGCGCAAGACUUUAAUUUAUCACUACGAAAUCUUGAGAUAGGGCGUUCGACUCGCCGCCGGGAGAUUUUUUCCUCGAGCAA [C64A C81G]: the nonsense suppression was ≤ 0.026.
Take CUCUCGGUAGACAAGUUGGUUUAAGGCGCAAGACUUUAAUUUAUCACUACGAAAUCUUGAGAUCGGGCGCUCGACUCGCCCCCGGGAGAUUUUUUCCUCGAGCAA [C11A U70C]: the nonsense suppression was ≤ 0.026.
On to CUCUCGGAAGCCAAGUUGGUUUAAGGCGCAAGACUUUAAUUUAUCACUACGAAAUCUUGAGAUCGGGCGUUCGACUCGCCCCAGGGAGAUUUUUUCCUCGAGCAA [U8A C83A], for which the nonsense suppression was ≤ 0.026.
To CUCUCGGUAUCCAAGUUGGUUUAAGGCGCCAGACUUUAAUUUAUCACUACGAAAUCCUGAGACCGGGCGUUCGACUCGCCCCCGGGAGAUUUUUUCCUCGAGCAA [G10U A30C U57C U63C] belongs ≤ 0.026; to CUCUUGGUAGCCAAGUUGGUUUAAGGCGCAAGAAUUUAAUUUAUCACUACGAAAUCUUGGGAUCGGGCGUUCGACUCGCCCCCGGGAGAUUUUUUCCUCGAGCAA [C5U C34A A60G], ≤ 0.026; to CUCUCGGUAGCCAAGUUGGUCUAAGGCGCAGGACUUUAAUUUAUCACUACGAAAUCUUGAGAUCGGGCUUUCGACUCGCCCCAGGGAGAUUUUUUCCUCGAGCAA [U21C A31G G69U C83A], ≤ 0.026.
For CUCUCGGUAGCCAAGUUAGUUUAAGGCGCAAGACUUUAAUUUAUCACUACGAAAUCUUGAGAUCGGGCGUUCGACUCGCCCCCGGGAGAUUUUUUCCUCGAGCAA [G18A], the nonsense suppression was ≤ 0.026.
For the variant CUGUCGGUAGCCAAGUUGGUUUACGGCGCAAGACUUUAAUUUAUCACUACGAAAUCUUGAGAUCGGGCGUUCGACUCGCCCCCGGUAGAUUUUUUCCUCGAGCAA [C3G A24C G86U], the nonsense suppression is ≤ 0.026.
For CUCUCGGUAGCCAAGUUGGUUUAAGGCGCAAUACUUUAAUUUAUCACUACGAAAUCUUGAGAUCGGGCUUUCGACUCGCCCCCGGGAGAUUUUUUCCUCGAGCAA [G32U G69U], the nonsense suppression is ≤ 0.026.
For the variant CUCUCCGUAGCCAAGUUGGUUUAAGGCGCAAGACUUUAAUUUAUCACUACGAAAUCCUGAGAUCGGGCGUUCAACUCGCCCCCUGGAACUUUUUUCCUCGAGCAA [G6C U57C G73A G84U G88A A89C], the nonsense suppression is ≤ 0.026.
To CUCUCGGUAGCCAUGUUGGUUUAAGGCGAAAGACUUUAAUUUAUCACUACGAAAACUUGAGAUCGGGCCUUCGACUCGCCCCCGGGAGAUUUUUUCCUCGAGCAA [A14U C29A U55A G69C] belongs ≤ 0.026.
As to CUCUCGGUAGCCAAGUUGGUUUAAGGCGCAAGACUUUAAUUUAUCACUACGAAAUGUUGAGAUCGGUCGUUCGACUCGCCCCCGGGGGAUUUUUUCCUCGAGCAA [C56G G67U A87G], the nonsense suppression was ≤ 0.026.
To CUAUCGGUAGCCACGUUGGUUUAAGGCGCAAGACUUUAAUUUAUCACUACGAACUCUUGAGAUCGGGCGUUCGACUCGCCCCCGGGAGAUUUUUUCCUCGAGCAA [C3A A14C A54C] belongs ≤ 0.026.
Take CUCUCGGUAGCCAAGUUUGUUUAUGGCGCAACACUUUAAUUUAUCACUACGAAAUCUUGAGAUCGGGCGUUCGACUCGCCCCCGGGAGAUUUUUUCCUCGAGCAA [G18U A24U G32C]: the nonsense suppression is ≤ 0.026.
As for CUCUCGGUAGCCAAGUUGGUUUAGGGCGCAAGACUUUAAUUUAUCACUACGAAAUCUUGAGAUCGGUCGUUCGACUCGCCCCCGGGAGAUUUUUUCCUCGAGCAA [A24G G67U], the nonsense suppression is ≤ 0.026.
For CUCUCGGUAGCCAAGUUGUUUUAAGGCGCAAGGCUUUAAUUUAUCACUACGAAAUCUUGAGAUCGGGCGGUCGACUCGCCCCCGGGAGAUUUUUUCCUCGAGCAA [G19U A33G U70G] the value was ≤ 0.026; for CUCUCGGUAGCUAAGUCGGUUUAAGGCGCAAGACUUUAAUUUAUCACUACGAAAUCUUGAGAUCGGGCGUUCGACUCGCCCCCGGGAGAUUUUUUCCUCGAGCAA [C12U U17C], 0.212; for CUCUCGGUAGCCAAGUUGAUUUAAGGCGCAAGACUUUAAUUUAUCACUACGAAAUCUUGAGAUCGGGCGUUCGACUCACCCCCGGGGGAUUUUUUCCUCGAGCAA [G19A G78A A87G], ≤ 0.026.
